{"source": "PubChem BioAssay AID686979", "about": "(National Center for Advancing Translational Sciences (NCATS), 2013)", "note": "Out of some 420,000 compounds screened, about 50,000 (12%) were called active. This list was built around the results that the source calls inconclusive (neither active nor inactive); the mix of calls is not that of the screen. Calls follow the shape of the dose curve; as a rule, active = well fitted inhibition curve with a large enough effect; inconclusive = small, poorly fitted or top-dose-only effect; inactive = flat fitted curve, though single readings scatter. Potencies of inconclusive entries are left out as doubtful fits. % is scaled to controls: 0 for no effect and ±100 for the full control effect; potency is read from the fitted curve at half-maximal effect; tags tell the direction and shape of the fitted curve."}
{"experiment": "qHTS for Inhibitors of human tyrosyl-DNA phosphodiesterase 1 (TDP1): qHTS in cells in presence of CPT; also: nearly all actives have a fitted effect of over 55% in size", "settings": "chicken DT40 Tdp1-/-;hTDP1 cells + 20 nM CPT, ATP luminescence, 48 h; activity change, negative = growth inhibition: at 46.2 µM (top of the series) unless noted", "procedure,_shortened": "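Cell growth measured by CellTiter-Glo luminescence after a minimum 48 h, 37 C compound exposure with 20 nM CPT in Tdp1-knockout DT40 cells stably expressing hTDP1, seeded 400/well; qHTS titration format.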"}
{"smiles": "Cc1ccc(C)c(N2CCN(C(=O)CCn3c(=O)c4cccn4c4cccnc43)CC2)c1", "Potency": "inconclusive [inhibitor, single point]"}
{"smiles": "COC(=O)c1ccccc1NC(=O)CSCC(=O)Nc1ccc(F)cc1", "activity change, negative = growth inhibition": "inactive: -29%"}
{"smiles": "CCN(CC)C(=O)CC(c1ccc(N(C)C)cc1)c1c(O)cc(OC)cc1OC", "note": "(configuration not stated)", "Potency": "inconclusive [inhibitor, single point]"}
{"smiles": "c1ccc2c(c1)NCCS2", "Potency": "inconclusive [inhibitor, full curve, poor fit]"}
{"smiles": "Cc1cccc(NC(=S)NNC(=S)NC2CCCCC2)c1C", "activity change, negative = growth inhibition": "inactive: -11.3%"}
{"smiles": "Cc1ccc2cc(CN(CCN(C)C)C(=O)Nc3ccc(Cl)cc3)c(=O)[nH]c2c1", "Potency": "inconclusive [inhibitor, single point]"}
{"smiles": "O=C1CC(/C=C/c2ccco2)=Nc2ccccc2N1", "Potency": "inconclusive [inhibitor, single point]"}
{"smiles": "COC(=O)c1ccccc1NC(=O)CSc1nc(-c2ccco2)cc(C(F)(F)F)n1", "Potency": "active: 4.11 µM"}
{"smiles": "O=C(Nc1ccccc1C(=O)N1CCCC1)c1ccccc1", "activity change, negative = growth inhibition": "inactive: -8.37%"}
{"smiles": "O=C(CC1C[C@H](C(=O)N2CCOCC2)[C@@]2(CCC3CCCC3)c3[nH]c4ccccc4c3CCN2C1=O)NCCCn1ccnc1", "note": "(some centres not stated)", "Potency": "inconclusive [inhibitor, single point]"}
{"smiles": "CCc1nc2c(OCC(=O)C(C)(C)C)cccn2c1N(C)C(=O)Nc1ccccc1OC", "Potency": "inconclusive [inhibitor, single point]"}
{"smiles": "COc1ccccc1CNC(=O)C1CCC(CNS(=O)(=O)c2ccc(C)cc2)CC1", "note": "(configuration not stated)", "activity change, negative = growth inhibition": "inactive: -1.21%"}
{"smiles": "COc1cccc(/C=N/NC(=O)CN2CC(c3ccccc3)CC2=O)c1O", "note": "(configuration not stated)", "Potency": "inconclusive [inhibitor, single point]"}
{"smiles": "Cc1ccccc1-c1cnc(C(O)c2cccc(C)c2C)[nH]1", "note": "(configuration not stated)", "Potency": "inconclusive [inhibitor, single point]"}
{"smiles": "Cc1cccc(NC(=O)c2cccc(OC(=S)N3CCOCC3)c2)c1", "Potency": "inconclusive [inhibitor, single point]"}
{"smiles": "COc1ccc(OC)c(CCNC(=O)C2=C(C)C(=O)OC23CCC(C)CC3)c1", "note": "(configuration not stated)", "activity change, negative = growth inhibition": "inactive: -1.05%"}
{"smiles": "Cc1ccc(S(=O)(=O)CCC(=O)OCC(=O)c2c[nH]c3ccccc23)cc1", "activity change, negative = growth inhibition": "inactive: -1.83%"}
{"smiles": "CS(=O)(=O)c1ccc2nc(NC(=O)CCS(=O)(=O)c3ccccc3)sc2c1", "Potency": "active: 5.17 µM"}
{"smiles": "CC(=O)c1cc2c(cc1NC(=O)CCn1cnnn1)OCO2", "activity change, negative = growth inhibition": "inactive: 11.4%"}
{"smiles": "CCN(CC)C(=O)c1sc(NC(=O)c2cc(-c3ccc(C)s3)nc3ccccc23)c(C(=O)OC)c1C", "Potency": "inconclusive [inhibitor, single point]"}
{"smiles": "CCOC(=O)CSc1nc2c(sc(=S)n2-c2ccccc2OC)c(=O)n1-c1ccccc1OC", "activity change, negative = growth inhibition": "inactive: -23.9%"}
{"smiles": "O=C(CSc1n[nH]c(-c2ccncc2)n1)Nc1ccc(F)cc1", "activity change, negative = growth inhibition": "inactive: -5.21%"}
{"smiles": "Cc1nn(C)cc1/C=N/NC(=S)Nc1ccc(Cl)cc1Cl", "Potency": "active: 0.517 µM"}
{"smiles": "Cc1cc(C)c(OCCn2ccnc2)c(C)c1", "Potency": "active: 6.51 µM"}
{"smiles": "Cc1cc(C)c2c(CC(=O)Nc3ccc(S(=O)(=O)Nc4ncccn4)cc3)coc2c1", "activity change, negative = growth inhibition": "inactive: -17.5%"}
{"smiles": "O=C(/C=C/c1ccccc1[N+](=O)[O-])N1CCc2ccccc2C1", "Potency": "inconclusive [inhibitor, single point]"}
{"smiles": "CCn1c(O)c(N=NC(=O)CNC(=O)c2ccco2)c2ccccc21", "Potency": "inconclusive [inhibitor, single point]"}
{"smiles": "CC1CNC(=S)N(c2ccccc2)C1=O", "note": "(configuration not stated)", "activity change, negative = growth inhibition": "inactive: 2%"}
{"smiles": "Cn1sc(NC(=O)c2ccccc2)nc1=O", "Potency": "inconclusive [inhibitor, single point]"}
{"smiles": "O=C(NNS(=O)(=O)c1ccc(F)cc1)c1sccc1-n1cccc1", "activity change, negative = growth inhibition": "inactive: -8.59%"}
{"smiles": "O=C(Nc1ccccc1)c1nc2ccccc2s1", "activity change, negative = growth inhibition": "inactive: -20.9%"}
{"smiles": "COc1cc(NC(=S)NC(=O)C(C)C)ccc1NC(=O)c1cc2ccccc2o1", "activity change, negative = growth inhibition": "inconclusive: -33.3% [inhibitor]"}
{"smiles": "Cc1c2cnn(-c3ccccc3)c(=O)c2c(C)n1CCCC(=O)N1CCN(c2ncccn2)CC1", "Potency": "inconclusive [inhibitor, single point]"}
{"smiles": "O=C(/C=C/c1ccc([N+](=O)[O-])cc1)Nc1cccc(S(=O)(=O)NC2=NCCCCC2)c1", "Potency": "active: 14.6 µM"}
{"smiles": "CCOc1ccc(C2=Nc3ccccc3C(c3ccc(N4CCOCC4)cc3)=NN2)cc1", "Potency": "active: 23.1 µM"}
{"smiles": "Cc1cccc(Nc2nc(-c3ccc(F)cc3)cs2)n1", "Potency": "active: 11.6 µM"}
{"smiles": "CN(C)S(=O)(=O)c1ccc(S(=O)(=O)N2CCCC(C(=O)NC3CC3)C2)cc1", "note": "(configuration not stated)", "activity change, negative = growth inhibition": "inactive: -28.6%"}
{"smiles": "CCOC(=O)c1c(CN2CCCCC2)oc2ccc(O)cc12", "Potency": "inconclusive [inhibitor, single point]"}
{"smiles": "O=C(COc1ccc(Cl)cc1)NCc1nnc(SCC(=O)N2CCCC2)o1", "activity change, negative = growth inhibition": "inactive: 0.638%"}
{"smiles": "CCN1C(=NCCc2cccs2)N[C@@H](c2cccs2)C(C(=O)OC)=C1C", "Potency": "active: 6.51 µM"}
{"smiles": "CCCN(CC(=O)Nc1ccccc1C)C(=O)Cc1c(C)nc2ccccc2c1C", "activity change, negative = growth inhibition": "inactive: -0.415%"}
{"smiles": "CC1CC(C)CN(S(=O)(=O)c2ccc(NC(=O)[C@@H]3CCCN3C(=O)c3cccs3)cc2)C1", "note": "(some centres not stated)", "Potency": "inconclusive [inhibitor, single point]"}
{"smiles": "CCOc1ccc(C(=O)Nc2ccc3c(c2)OCCO3)cc1OC", "Potency": "inconclusive [inhibitor, partial curve, poor fit]"}
{"smiles": "COc1ccc(-n2nccc2-c2nn(-c3cccc(OC)c3)c(=O)n(C)c2=O)cc1", "Potency": "inconclusive [inhibitor, single point]"}
{"smiles": "CC(C)(C)n1ncc2c(=O)n(CC(=O)NC3CCCCC3)cnc21", "Potency": "inconclusive [inhibitor, single point]"}
{"smiles": "CCOC(=O)N1C2=NC(C(=O)OC)=C(C(=O)OC)[C@@H]3N(C)c4ccc(OC)cc4[C@]23C[C@H]1C(=O)OC", "Potency": "inconclusive [inhibitor, partial curve, poor fit]"}
{"smiles": "O=C(CN1C(=O)NC2(CCCc3ccccc32)C1=O)Nc1cccc(S(=O)(=O)N2CCCCC2)c1", "note": "(configuration not stated)", "Potency": "inconclusive [inhibitor, single point]"}
